Source: article PMC5206653, “PDLIM5 links kidney anion exchanger 1 (kAE1) to ILK and is required for membrane targeting of kAE1” (Scientific Reports, 2017)
No constants are given. Whether binding was seen depends on the method and setting. For part of these data: In cells and extracts the contact can be indirect. Some binding calls cover weakened binding; strength is not graded here. Sequences can lack the tags named with a protein.

Amino acid sequences for entries named in this document (tags omitted).
UniProt Q13418: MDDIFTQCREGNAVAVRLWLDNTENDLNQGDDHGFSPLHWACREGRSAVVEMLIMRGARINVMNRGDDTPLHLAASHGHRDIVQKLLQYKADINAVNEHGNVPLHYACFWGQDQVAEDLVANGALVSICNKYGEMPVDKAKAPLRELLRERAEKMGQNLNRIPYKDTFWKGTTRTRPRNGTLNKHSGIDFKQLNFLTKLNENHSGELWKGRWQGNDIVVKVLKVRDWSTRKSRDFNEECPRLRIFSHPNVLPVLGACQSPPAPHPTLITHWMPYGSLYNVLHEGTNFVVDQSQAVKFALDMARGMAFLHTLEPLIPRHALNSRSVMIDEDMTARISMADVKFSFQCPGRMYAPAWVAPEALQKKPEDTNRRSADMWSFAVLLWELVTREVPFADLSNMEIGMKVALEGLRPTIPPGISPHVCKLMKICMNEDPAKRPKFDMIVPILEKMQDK

T1: GST_PDLIM5 recombinant protein (GST-PDLIM5a) (human) (UniProt Q96HC4)
T1 sequence: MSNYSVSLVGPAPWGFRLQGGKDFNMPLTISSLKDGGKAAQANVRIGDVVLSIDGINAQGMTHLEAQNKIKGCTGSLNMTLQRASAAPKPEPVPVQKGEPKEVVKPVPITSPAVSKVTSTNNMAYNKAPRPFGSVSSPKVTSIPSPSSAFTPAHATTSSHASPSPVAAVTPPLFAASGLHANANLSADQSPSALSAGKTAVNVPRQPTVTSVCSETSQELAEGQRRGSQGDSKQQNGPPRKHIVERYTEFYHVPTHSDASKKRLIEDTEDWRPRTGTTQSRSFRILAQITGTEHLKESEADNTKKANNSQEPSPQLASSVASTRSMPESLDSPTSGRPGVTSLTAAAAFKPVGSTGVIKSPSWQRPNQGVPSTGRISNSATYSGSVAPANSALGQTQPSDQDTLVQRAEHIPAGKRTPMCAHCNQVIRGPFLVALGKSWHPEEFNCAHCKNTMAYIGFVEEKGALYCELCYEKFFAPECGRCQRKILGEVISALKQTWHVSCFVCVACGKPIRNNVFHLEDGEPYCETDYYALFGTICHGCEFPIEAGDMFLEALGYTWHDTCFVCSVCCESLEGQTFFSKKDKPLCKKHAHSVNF

T2: tag-free PDZ domain of PDLIM5 (PDLIM5-PDZ), first 127 residues (human) (UniProt Q96HC4)
T2 sequence: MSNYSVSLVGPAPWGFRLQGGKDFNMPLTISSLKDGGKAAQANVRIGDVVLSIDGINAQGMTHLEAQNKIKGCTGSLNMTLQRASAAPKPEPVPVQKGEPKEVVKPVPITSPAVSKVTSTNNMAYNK

T3: GST-tagged AE1 C-terminal domain, wild type (GST_AE1C-WT) (human)
T3 sequence: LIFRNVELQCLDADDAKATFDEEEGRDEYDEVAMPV

T4: GST-tagged AE1 C-terminal domain lacking the last 11 residues (GST_AE1C-Δ11) (human)
T4 sequence: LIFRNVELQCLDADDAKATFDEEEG

B1: PDLIM5b, endogenous (protein, UniProt Q96HC4-4 1-487)
chain: MSNYSVSLVGPAPWGFRLQGGKDFNMPLTISSLKDGGKAAQANVRIGDVVLSIDGINAQGMTHLEAQNKIKGCTGSLNMTLQRASAAPKPEPVPVQKPTVTSVCSETSQELAEGQRRGSQGDSKQQNGPPRKHIVERYTEFYHVPTHSDASKKRLIEDTEDWRPRTGTTQSRSFRILAQITGTEHLKESEADNTKKANNSQEPSPQLASSVASTRSMPESLDSPTSGRPGVTSLTAAAAFKPVGSTGVIKSPSWQRPNQGVPSTGRISNSATYSGSVAPANSALGQTQPSDQDTLVQRAEHIPAGKRTPMCAHCNQVIRGPFLVALGKSWHPEEFNCAHCKNTMAYIGFVEEKGALYCELCYEKFFAPECGRCQRKILGEVISALKQTWHVSCFVCVACGKPIRNNVFHLEDGEPYCETDYYALFGTICHGCEFPIEAGDMFLEALGYTWHDTCFVCSVCCESLEGQTFFSKKDKPLCKKHAHSVNF
B2: GST_PDLIM5 recombinant protein (GST-PDLIM5a) (protein, UniProt Q96HC4-1 1-596)
chain: T1 sequence
B3: PDLIM5a, endogenous (protein, UniProt Q96HC4-1 1-596)
chain: T1 sequence
B4: tag-free PDZ domain of PDLIM5 (PDLIM5-PDZ), first 127 residues (domain or fragment, UniProt Q96HC4 1-127)
chain: T2 sequence

Assays:
[1] = molecular target: T1, GST_PDLIM5 recombinant protein (GST-PDLIM5a) (human); experiment: far-Western, overlay or dot blot; GST-AE1C, GST-PDLIM5, PDLIM5-PDZ or GST alone spotted (pmole amounts) on nitrocellulose, overlaid with GST-ILK (50–65 pmoles) in PBS with 2% skimmed milk and 0.1% Tween 20; detection with anti-ILK; both purified
[2] = molecular target: T2, tag-free PDZ domain of PDLIM5 (PDLIM5-PDZ), first 127 residues (human); experiment: condition: 50–65 pmoles GST-ILK overlaid; 30, 60 and 120 pmoles spotted; far-Western, overlay or dot blot; GST-AE1C, GST-PDLIM5, PDLIM5-PDZ or GST alone spotted (pmole amounts) on nitrocellulose, overlaid with GST-ILK (50–65 pmoles) in PBS with 2% skimmed milk and 0.1% Tween 20; detection with anti-ILK; both purified
[3] = molecular target: T3, GST-tagged AE1 C-terminal domain, wild type (GST_AE1C-WT) (human); experiment: as above
[4] = molecular target: T3, GST-tagged AE1 C-terminal domain, wild type (GST_AE1C-WT) (human); experiment: ELISA; 100 μl of 30 μM GST_AE1C-WT, -Δ11, -M909T or GST alone immobilised on a 96-well plate; incubated with 100 μl of 2 μg/ml GST_PDLIM5, tag-free PDLIM5-PDZ or GST_ILK; detection with anti-PDLIM5-nt or anti-ILK, HRP, ABTS; both purified
[5] = molecular target: T3, GST-tagged AE1 C-terminal domain, wild type (GST_AE1C-WT) (human); experiment: pull-down; bead-bound GST_AE1C-WT or GST alone against human kidney cytosol; blots with anti-PDLIM5-ct or anti-ILK; only the target purified
[6] = molecular target: T3, GST-tagged AE1 C-terminal domain, wild type (GST_AE1C-WT) (human); experiment: pull-down; bead-bound GST_AE1C-WT or GST alone against HEK-ΔpMEP-eGFP-kAE1 cell lysates (150 mM NaCl, 20 mM Tris-HCl pH 7.4, 10% glycerol, 1% NP-40); blots with anti-PDLIM5-ct or anti-ILK; only the target purified
[7] = molecular target: T4, GST-tagged AE1 C-terminal domain lacking the last 11 residues (GST_AE1C-Δ11) (human); experiment: ELISA; 100 μl of 30 μM GST_AE1C-WT, -Δ11, -M909T or GST alone immobilised on a 96-well plate; incubated with 100 μl of 2 μg/ml GST_PDLIM5, tag-free PDLIM5-PDZ or GST_ILK; detection with anti-PDLIM5-nt or anti-ILK, HRP, ABTS; both purified
[8] = molecular target: GST-tagged AE1 C-terminal domain with the missense mutation M909T (GST_AE1C-M909T) (human) (UniProt P02730); experiment: as above
[9] = molecular target: T3, GST-tagged AE1 C-terminal domain, wild type (GST_AE1C-WT) (human); experiment: as above; remark: listed apart in the source

Molecule | binding [5] | binding [6] | binding [7] | further results
GST_ILK recombinant protein (integrin-linked kinase) (from UniProt Q13418 1-452) | – | – | – | binding [1]: binds; binding [2]: no binding; binding [3]: no binding; binding [4]: no binding (tested: 2 μg/ml)
B1 | binds | binds | – | –
B2 | – | – | no binding (tested: 2 μg/ml) | binding [8]: binds; binding [9]: binds
B3 | binds | binds | – | –
B4 | – | – | no binding (tested: 2 μg/ml) | –
